# Data: PubChem BioAssay AID504832 (National Center for Advancing Translational Sciences (NCATS), 2011)
# Screen size: about 310,000 compounds; about 18,000 (5.8%) were called active. The shares of active, inactive and inconclusive entries below differ from those in the screen. Calls follow the shape of the dose curve; as a rule, active = well fitted inhibition curve with a large enough effect; inconclusive = small, poorly fitted or top-dose-only effect, or another doubt; inactive = no such curve, though single readings can be large or run the other way. No potency is given beside an inconclusive call; the fits are too rough.
# Experiment: Primary qHTS for delayed death inhibitors of the malarial parasite plastid, 48 hour incubation
# Conditions: P. falciparum luciferase growth in erythrocytes; series mostly up to 28.7 µM
# In short: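 Luciferase-expressing parasites in RBCs, 2% Hct / 0.1% parasitemia final; RPMI 1640 + 0.5% Albumax; 37 C, 5% CO2, one generation; luminescence read-out, lower signal = inhibition.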
# Potency is read from the fitted curve at half-maximal effect; tags tell the direction and shape of the fitted curve.
row,SMILES,Potency
1,CC1=C(C(=O)OCc2ccccc2)C(c2ccccc2-c2ccccc2)NC(=O)N1CCCCCC(=O)O (stereo not drawn),"inconclusive [inhibitor, single point]"
2,O=C(CSc1nnc(CCCN2C(=O)c3cccc4cccc(c34)C2=O)n1-c1ccccc1)NCCCO,"inconclusive [inhibitor, partial curve]"
3,O=C(Nc1ccccc1)C1CC(=O)N(c2ccc3c4c(cccc24)CC3)C1 (stereo not drawn),"inconclusive [inhibitor, single point]"
4,C=CCn1c2ccccc2c(=O)c2cc(C#Cc3ccsc3)ccc21,active: 0.0465 µM
5,CCCC/C(C)=N/NC(=O)Nc1ccccc1,inactive
6,COC(=O)c1c(C)[nH]c(C(=O)C(C)OC(=O)c2c(C)noc2C)c1C (stereo not drawn),"inconclusive [inhibitor, single point]"
7,CC(Oc1ccc(F)cc1)C(=O)Nc1ccc(N2CCOCC2)cc1N1CCOCC1 (stereo not drawn),"inconclusive [inhibitor, single point]"
8,CCOC(=O)/C(C#N)=C1\Nc2ccccc2N=C1N(CC(C)C)CC(C)C,active: 2.33 µM
9,CC1Oc2ccccc2C=C1/C=N/NC(=O)c1ccncc1 (stereo not drawn),"inconclusive [inhibitor, partial curve, poor fit]"
10,CS(=O)(=O)c1ccc2sc(NC(=O)c3cc4ccccc4o3)nc2c1,inactive
11,O=C(Nc1ccc(OC(F)(F)F)cc1)Oc1ccccc1N1CCOCC1,"inconclusive [inhibitor, partial curve]"
12,COc1cccc(-n2c(C)c3c(OC)cccc(=O)c3c2C)c1,active: 4.15 µM
13,Cc1cccc(N2CC(C(=O)Nc3cccc(S(=O)(=O)N4CCCCC4)c3)CC2=O)c1C (stereo not drawn),"inconclusive [inhibitor, single point]"
14,CCO/N=C(\N)c1[nH]ncc1Br,inactive
15,CCOc1ccc2[nH]c(=O)c(C(c3nnnn3C3CCCCC3)N3CCN(CC)CC3)cc2c1 (stereo not drawn),"inconclusive [inhibitor, single point]"
16,COc1ccc(C(=O)COC(=O)c2ccco2)cc1,inactive
17,O=C(Nc1ccccc1N1CCN(c2ccc(F)cc2)CC1)C12CC3CC(CC(C3)C1)C2,"inconclusive [inhibitor, full curve, poor fit]"
18,CC1CCCN(C(=O)c2sc3cc([N+](=O)[O-])ccc3c2Cl)C1 (stereo not drawn),"inconclusive [inhibitor, partial curve]"
19,O=[N+]([O-])c1ccc(N2CCN(C(=S)Nc3cccc(F)c3)CC2)cc1,active: 3.29 µM
20,CCCCC[C@H](O)/C=C/C1=C(CCCCCCC(=O)O)C(=O)CC1,"inconclusive [inhibitor, partial curve, poor fit]"
21,O=C(COc1ccc(Cl)cc1)NCc1ccncc1,inactive
22,CN(C(=O)c1cc2n(n1)C(C(F)(F)F)CC(c1ccco1)N2)c1ccccc1 (stereo not drawn),inactive
23,NS(=O)(=O)c1ccc(CNC(=O)C(c2ccccc2)c2ccccc2)cc1,inactive
24,COCCOc1ccc(C(F)(F)F)cc1NC(=O)Cc1ccc(S(=O)(=O)N2CCOCC2)s1,active: 11.7 µM
25,O=C(COC(=O)C12CC3CC(CC(O)(C3)C1)C2)Nc1cccc(Br)c1,inactive

row,SMILES,Potency
1,CCC(C)c1ccccc1NC(=O)c1cc(C)no1 (stereo not drawn),inactive
2,CC(Oc1cccc(NC(=O)c2cccs2)c1)C(=O)c1ccccc1 (stereo not drawn),"inconclusive [inhibitor, partial curve]"
3,CCn1c(SCC(=O)Nc2ccc(N3CCOCC3)cc2)nnc1-c1ccco1,inactive
4,COc1cc(/C=C(\C#N)c2nn(CCO)c(N)c2C#N)cc(OC)c1OC,active: 7.38 µM
5,COc1ccc(CCNC(=O)Oc2ccccc2)cc1OC,inactive
6,O=C(CCS(=O)(=O)c1cccs1)Nc1ccc(C(=O)NCc2ccc(F)cc2)cc1,"inconclusive [inhibitor, partial curve]"
7,CC(C)Oc1ccc(S(=O)(=O)N2CCCCC2)cc1NC(=O)CN1CCCC1c1cccs1 (stereo not drawn),active: 4.15 µM
8,COCc1cc(C)nc(OCC(=O)N/N=C/c2ccc(C)cc2)c1C#N,"inconclusive [inhibitor, partial curve, poor fit]"
9,Cc1cccc(-n2c(O)c(C=Nc3ccc4c(c3)OCO4)c3ccccc3c2=O)n1,"inconclusive [inhibitor, partial curve, poor fit]"
10,CC(C)CC(NC(N)=O)C(=O)NCCc1ccc(Cl)cc1Cl (stereo not drawn),inactive
11,Nc1nnc2c(n1)CCCC2,inactive
12,COc1ccc(S(=O)(=O)N/N=C(/C)c2ccco2)cc1,inactive
13,Cc1c(C(=O)NCCC2=CCCCC2)oc2ccc(S(=O)(=O)N3CCOCC3)cc12,active: 11.7 µM
14,Nn1c(SCc2ccccn2)nncc1=O,inactive
15,CC1(C)Cc2c(c(-c3ccco3)[nH]c(=O)c2C#N)CO1,"inconclusive [inhibitor, single point]"
16,CC(C)C[C@@]12C(=O)N(c3cccc(F)c3)C(=O)N1[C@H](c1ccc(Cl)cc1)[C@@H]1C(=O)N(C3CCCCC3)C(=O)[C@@H]12,active: 2.94 µM
17,C/C(=N\NC(=O)c1ccc(Cl)cc1)c1ccc(Br)s1,active: 7.38 µM
18,Cc1onc(-c2c(F)cccc2Cl)c1C(=O)NC1C(=O)N2C1SC(C)(C)C2C(=O)O (stereo not drawn),inactive
19,CCOc1cc(C(=O)O/N=C(\N)c2ccc([N+](=O)[O-])cc2)cc(OCC)c1OCC,"inconclusive [inhibitor, partial curve]"
20,O=C(CN1CCCC1)N1CCCc2c1c(=O)oc1ccc(OCc3ccccc3)cc21,"inconclusive [inhibitor, partial curve, poor fit]"
21,CN(CC(=O)Nc1ccc(OC(F)(F)F)cc1)C(=O)Cc1ccc2c(c1)CCC2,"inconclusive [inhibitor, single point]"
22,CC(C)(C)c1cc(C(=O)N/N=C/c2cc3c(cc2Br)OCO3)n[nH]1,"inconclusive [inhibitor, single point]"
23,CCn1c(CSCc2ccc(Cl)cc2)n[nH]c1=S,"inconclusive [inhibitor, partial curve]"
24,Cc1nc(SCC(=O)Nc2cc(S(=O)(=O)N3CCOCC3)ccc2Cl)nc(C)c1C,"inconclusive [inhibitor, partial curve]"
25,Cc1cccc(-n2nc3c(c2NC(=O)c2ccc(Br)o2)CSC3)c1,"inconclusive [inhibitor, single point]"

row,SMILES,Potency
1,CCSc1nnc(-c2ccccc2N=Cc2c(C)[nH]n(-c3ccccc3)c2=O)c(=O)[nH]1,inactive
2,CC(C)C(=O)N(Cc1cc(=O)[nH]c2ccccc12)c1ccccc1,"inconclusive [inhibitor, single point]"
3,COc1cc(C(=O)Nc2cc(C)nn2-c2ccccc2)cc(OC)c1OC,"inconclusive [inhibitor, partial curve]"
4,COCc1[nH]c(=S)c(C#N)cc1C(=O)OC,inactive
5,CCOC(=O)c1cc2c(=O)n3ccccc3nc2n(CCOC)c1=NC(=O)c1c(-c2c(F)cccc2Cl)noc1C,"inconclusive [inhibitor, partial curve]"
6,Cc1cccc(N2C(=O)C3CCCN3C2=S)c1C (stereo not drawn),active: 13.1 µM
7,CCCCOc1ccc(NC(=S)Nc2cc(C)nc(SCCCC)n2)cc1,inactive
8,CSc1ccc(CCNC(=O)Cn2ncc3c([nH]c4ccccc43)c2=O)cc1,inactive
9,Cc1ccc(C2C(C#N)=C(N)SC(N)=C2C#N)c(C)c1,"inconclusive [inhibitor, single point]"
10,Cc1cc(=O)oc2cc(NC(=O)C(CCCN=C(N)N)NC(=O)OCc3ccccc3)ccc12 (stereo not drawn),"inconclusive [inhibitor, full curve, poor fit]"
11,CCOC(=O)C1(Cc2ccccc2C(F)(F)F)CCN(C2CCC2)CC1,"inconclusive [inhibitor, single point]"
12,COP(=O)(OC)c1nc(-c2cccc3ccccc23)oc1NCCc1ccccc1,"inconclusive [inhibitor, single point]"
13,C=CCn1c(=NC(=O)c2ccc(S(=O)(=O)N3CCCC3)cc2)sc2cc(NC(C)=O)ccc21,active: 1.85 µM
14,CN1CCN(c2nc3c(c(=O)n(C)c(=O)n3C)n2Cc2cccc3ccccc23)CC1,active: 10.4 µM
15,COC(=O)c1[nH]c2ccc(C)cc2c1NC(=O)CN1CCCC(C)(C)C1,"inconclusive [inhibitor, single point]"
16,O=C1CCCc2[nH]c(-c3ccccc3)nc21,inactive
17,CC(=O)c1ccc(NC(=S)NC(C)CCc2ccccc2)cc1 (stereo not drawn),"inconclusive [inhibitor, single point]"
18,O=C(/C=C/c1cn(-c2ccccc2)nc1-c1cccnc1)N1CCCC1,"inconclusive [inhibitor, single point]"
19,CC(=O)c1ccc(NC(=O)c2cc(C)nc3ccccc23)cc1,inactive
20,Cc1ccc(O)c(CO)n1,inactive
21,COC(=O)c1ccccc1NC(=O)N1CCN(S(=O)(=O)c2ccc(Cl)cc2)CC1,"inconclusive [inhibitor, partial curve, poor fit]"
22,CC(NC(=O)c1ccccc1)c1nc2ccccc2n1Cc1ccccc1F (stereo not drawn),"inconclusive [inhibitor, partial curve, poor fit]"
23,CCOc1cc(/C=N/Nc2nn3cnnc3c3ccccc23)ccc1O,"inconclusive [inhibitor, single point]"
